# Test results as given in patent US11178870B2 (priority 2017, dated 2021).
# Key:
# Phytophthora infestans = format: in vivo; conditions: Table 7, Test F
# [1] = test system: Colletotrichum orbiculare; conditions: 250 ppm sprayed (2.5 ml/pot) before inoculation; assessed 6 to 10 days after inoculation
# Magnaporthe grisea = format: in vivo; conditions: Table 7, Test A
Compound,"control value, Test F (late blight on tomato) (Phytophthora infestans)","control value, Test H (anthracnose on cucumber) [1]","control value, Test A (blast on rice) (Magnaporthe grisea)"
CCn1c(-c2ccc(F)cc2Cl)c(-n2cc(C)cn2)cc(Br)c1=O [Compound 335],L (L shows the control value of 50% or less),H (H shows the control value more than 50%),
Cc1cnn(-c2cc(Br)c(=O)n(CC(F)F)c2-c2ccc(F)cc2Br)c1Cl [Compound 341],H (H shows the control value more than 50%),H (H shows the control value more than 50%),H (H shows the control value more than 50%)
CCn1c(-c2c(F)cccc2F)c(-c2sccc2Br)cc(Cl)c1=O [Compound 365],L (L shows the control value of 50% or less),H (H shows the control value more than 50%),H (H shows the control value more than 50%)
